From article PMC5983756 (2018) come the findings set out here.

This experiment deals with T1, purified D1 domain of FGFR1 fused to GST (GST-FGFR1.D1 25-124) (Homo sapiens (Human), UniProt P11362).
T1 chain: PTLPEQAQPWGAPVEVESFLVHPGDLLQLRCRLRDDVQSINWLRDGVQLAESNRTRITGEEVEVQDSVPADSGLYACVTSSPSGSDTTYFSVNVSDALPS
In words: SPR. In general terms: Surface plasmon resonance follows binding to a sensor surface in real time, without labels.

B1: Recombinant FGF1 (Met-Ala-FGF1 […]) (protein)
chain: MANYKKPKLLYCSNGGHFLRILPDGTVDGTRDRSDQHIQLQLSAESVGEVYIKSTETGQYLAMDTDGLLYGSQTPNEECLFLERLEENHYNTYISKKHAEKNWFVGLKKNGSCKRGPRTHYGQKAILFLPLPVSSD
B1: the binding result is listed as “no binding”.
